Measured values from publication PMC7819943, “Rice protein-binding microarrays: a tool to detect cis-acting elements near promoter regions in rice”.
This is one part of the list.

target: T1, OsWOX13 (Oryza sativa, UniProt Q5QMM3 1-267); assay: protein-binding microarray (RPBM); PBS, 2% BSA, 51.3 ng/ul salmon testes DNA, 50 uM zinc acetate, 200 nM TF, 25 C, 1 h; high values mean tight binding; conditions: protein: recombinant; tags: N-terminal polyhistidine and DsRed monomer fusion (pET32a); label: CyDye5-dUTP incorporated in the synthesized complementary strand; 3' TTTTT single-stranded linker to array surface; dsDNA, one strand shown
T1 sequence: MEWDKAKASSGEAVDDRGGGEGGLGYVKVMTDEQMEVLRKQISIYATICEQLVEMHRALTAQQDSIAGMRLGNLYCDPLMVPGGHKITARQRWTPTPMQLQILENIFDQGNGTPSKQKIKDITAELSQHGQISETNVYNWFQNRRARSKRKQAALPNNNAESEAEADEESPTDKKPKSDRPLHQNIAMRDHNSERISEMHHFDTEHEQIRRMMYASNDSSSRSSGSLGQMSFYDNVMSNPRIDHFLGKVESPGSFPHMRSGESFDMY
Summary of the method: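 An Axon 4000B scanner gave the binding signal as per-feature fluorescence intensity in arbitrary units. This followed washing of a custom Agilent array that had been incubated for 1 h at 25 °C with 200 nM protein in PBS, 2% BSA, salmon testes DNA and 50 µM zinc acetate. The proteins were transcription factors fused at the N-terminus to polyhistidine and DsRed, expressed in E. coli BL21-CodonPlus and purified on Ni–NTA.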

In order of falling binding signal:
1. TCCCCTCTGATTAATTAATTAATTAATTAATTAGCTAAAACGGAGTCACCTAGTGCAG  65500 fluorescence intensity (a.u.)
2. TTTTGATTAGTTTAGGGACACCGGATATCTGGTTTTGTGGCGGAGTCACCTAGTGCAG  50700 fluorescence intensity (a.u.)
3. CCTAATTAATCCATCATTAGCACATGTGGGTTACTGTAACCGGAGTCACCTAGTGCAG  49900 fluorescence intensity (a.u.)
4. AATATAATTACATTGTGATTGTACTATATTTATATTTGTTCGGAGTCACCTAGTGCAG  49400 fluorescence intensity (a.u.)
5. ACCTCTGATTGCGTCATTCCATTTCCATGGATTGCTCGATCGGAGTCACCTAGTGCAG  41200 fluorescence intensity (a.u.)
6. ATTCTGATTGGCTCCTCCTGTAGGAATTAGGATTTAGGAGCGGAGTCACCTAGTGCAG  35700 fluorescence intensity (a.u.)
7. ATGAATTTCGTTTCAATCAACGATGTGAATTGTAGGTAACCGGAGTCACCTAGTGCAG  34800 fluorescence intensity (a.u.)
8. AGATTGATTGCCGTGTTCATGCGTAGCCACCGTCCCTAAACGGAGTCACCTAGTGCAG  34800 fluorescence intensity (a.u.)
9. ATAGACTGATAGATACATGCAATGCAGCCAAAGCGGAGCACGGAGTCACCTAGTGCAG  31600 fluorescence intensity (a.u.)
10. CTAATTGACATATCCAAAACTTTGGTATAAATAATTACCACGGAGTCACCTAGTGCAG  31400 fluorescence intensity (a.u.)
11. AGTTAATTGTCTACATGCATACATGTCTTATATTATGGAACGGAGTCACCTAGTGCAG  30900 fluorescence intensity (a.u.)
12. CCTCCTGATTGCTGCGGTTTGCGCCAAAATCTCCTCGCCCCGGAGTCACCTAGTGCAG  30900 fluorescence intensity (a.u.)
13. TTTGCAATCAATTAGAGGAGGAAATACATGGGAGAAGCAGCGGAGTCACCTAGTGCAG  27200 fluorescence intensity (a.u.)
14. ATCTATTTATTTCTAATTTACAATTATAAATGATGTGGTGCGGAGTCACCTAGTGCAG  26300 fluorescence intensity (a.u.)
15. GTCATTTGATTAGCTCTAAAGCTATTTCTATCACTTCTCACGGAGTCACCTAGTGCAG  24200 fluorescence intensity (a.u.)
16. GCAAATTGAACTCTCTTCTAACGGAAGCATCCTAGCTAGCCGGAGTCACCTAGTGCAG  21800 fluorescence intensity (a.u.)
17. AATTCGTACTGATTGGGCGATTGGCTGGTGGTAGTATTATCGGAGTCACCTAGTGCAG  21000 fluorescence intensity (a.u.)
18. TTCCAATCACATTCTTAGTCAACACCATCCATGCTGTCGACGGAGTCACCTAGTGCAG  20700 fluorescence intensity (a.u.)
19. TTTGCTTAATTAAGAATTTTGAATTTTCTACCGCTATTTCCGGAGTCACCTAGTGCAG  20200 fluorescence intensity (a.u.)
20. CACCAGATTGGGACGTCAATCCTACCCGTGGTATGGGTATCGGAGTCACCTAGTGCAG  19000 fluorescence intensity (a.u.)
21. GAGGGAGTACTAATTATTTAATTTGATGATTATAATACTTCGGAGTCACCTAGTGCAG  17900 fluorescence intensity (a.u.)
22. AACTTCATTACATTTGATTGGTGGCATCTTTACTACCACTCGGAGTCACCTAGTGCAG  17700 fluorescence intensity (a.u.)
23. TTTTGATAGGATGTCTATTCAGATTTATTTTAATATGTCACGGAGTCACCTAGTGCAG  16300 fluorescence intensity (a.u.)
24. ATAAAACTAATTGCATAAATAAGAGCTAATTCGTGAGATACGGAGTCACCTAGTGCAG  15500 fluorescence intensity (a.u.)
25. GTAACAATCATGTGTAATTTGCAGAAACCAAATCCATTTTCGGAGTCACCTAGTGCAG  12300 fluorescence intensity (a.u.)
26. TCACTGACTGATAAGTCGATCCCACCCACATCCGCGCTGACGGAGTCACCTAGTGCAG  12000 fluorescence intensity (a.u.)
27. ACATTGTTAAATCATGGCCTAATTAGACTTAAAAGATTCACGGAGTCACCTAGTGCAG  10400 fluorescence intensity (a.u.)
28. ATATGAAATTACTTAATCTAATTCAAAATATAACCACATGCGGAGTCACCTAGTGCAG  8360 fluorescence intensity (a.u.)
29. AGCTAGTAATAATTAGTTTAAATAAACTAGCTAGTAATTACGGAGTCACCTAGTGCAG  8160 fluorescence intensity (a.u.)
30. GATAGGATTAGATGAAAGGTTGACTGACTGCTCAAGCGATCGGAGTCACCTAGTGCAG  7750 fluorescence intensity (a.u.)
31. TGATAGGAAAATAATTAATAATTATTTAAATATTTTAAATCGGAGTCACCTAGTGCAG  7330 fluorescence intensity (a.u.)
32. AGCACCGATTAGCAATTACCCCTCCCACGAGGCAGAGACGCGGAGTCACCTAGTGCAG  6460 fluorescence intensity (a.u.)
33. TTACCAAATTTCACTGTTAACAGCGGTGCGTGGGTATTGACGGAGTCACCTAGTGCAG  6390 fluorescence intensity (a.u.)
34. AGAGATTTAAACTTGTATTAATTTAATGAGGTTTATAGAGCGGAGTCACCTAGTGCAG  6320 fluorescence intensity (a.u.)
35. GTGGTAGTTTGTAATAATTGGTTGTAGCTCTTTTAAGCACCGGAGTCACCTAGTGCAG  5870 fluorescence intensity (a.u.)
36. CTTAAATAACCAATTTAGTATTGAATATAACATATTATTCCGGAGTCACCTAGTGCAG  5830 fluorescence intensity (a.u.)
37. TGAAACCACAATTGATGTTAACACATAAATTTCTTCCCTTCGGAGTCACCTAGTGCAG  5390 fluorescence intensity (a.u.)
38. ACATTTCTTGTTCAATTGACAGATCTTGAGAAAAGGAAGGCGGAGTCACCTAGTGCAG  5360 fluorescence intensity (a.u.)
39. ATCATTGGATTAATATATAAATTTACTTTCATATGGTTGTCGGAGTCACCTAGTGCAG  5320 fluorescence intensity (a.u.)
40. GCAACGACGTCTCCCTGATTAGCGTGGAGACTGTGGGAGGCGGAGTCACCTAGTGCAG  5240 fluorescence intensity (a.u.)
41. CCAGTTAAACTGGAATGAGGAAACTAGCCGCAATGCGTAACGGAGTCACCTAGTGCAG  4710 fluorescence intensity (a.u.)
42. TCTAGATTTTATATAACTTCTAACTACCTAAATCAAACGGCGGAGTCACCTAGTGCAG  4660 fluorescence intensity (a.u.)
43. TATAAACAGGTTGATAAACTAGTCGAACTACGGATATGAACGGAGTCACCTAGTGCAG  4630 fluorescence intensity (a.u.)
44. TATTAAGCCTAATTAAATATCATTAATAAATATTTACTGTCGGAGTCACCTAGTGCAG  3800 fluorescence intensity (a.u.)
45. GATCAAACAAATTTATGGGGCGTAGAAGGGATTGGGTGAACGGAGTCACCTAGTGCAG  3760 fluorescence intensity (a.u.)
46. CGAGGTTTCTGTTTGTTAATTACTTACCGTGACAGTGAGCCGGAGTCACCTAGTGCAG  3760 fluorescence intensity (a.u.)
47. CTTATGCTAATTTGGCTATCTTCAAGAGGTCTGTTTGCAACGGAGTCACCTAGTGCAG  3580 fluorescence intensity (a.u.)
48. AGTTTTAATTTCCTCGTCTTTGCATATATGGAAGGAACCGCGGAGTCACCTAGTGCAG  3560 fluorescence intensity (a.u.)
49. GTGCCAAATTTGCTTCCTCCTCCCTTTCAACATGGTTCGTCGGAGTCACCTAGTGCAG  3380 fluorescence intensity (a.u.)
50. ACGTCAAACTAATCATGCATACCGATCGCGTCAATGCAAGCGGAGTCACCTAGTGCAG  3300 fluorescence intensity (a.u.)
51. CATATAGATTTATTTTCAGAAAATAGGACTTACATTTTGACGGAGTCACCTAGTGCAG  3290 fluorescence intensity (a.u.)
52. AACTTTTACAAAATTTGTGAACATTTATTTCCCATATGAACGGAGTCACCTAGTGCAG  3270 fluorescence intensity (a.u.)
53. ACGCTTTCCTGTGCTCTTTCTCGGTTATTAATATTTTCTCCGGAGTCACCTAGTGCAG  3260 fluorescence intensity (a.u.)
54. TGTTAACTTTATTGTATCAGCAATCAAGTTATCAAGACAACGGAGTCACCTAGTGCAG  3170 fluorescence intensity (a.u.)
